According to publication PMC4336329 (PLoS ONE, 2015):
The campaign covered roughly 310,000 compounds. About 14,000 (4.5%) showed an effect of 50% or more. Effects have a minus sign here. The list shows a part of the results.

molecular target: human ether-à-go-go-related gene (hERG) potassium channel (human, UniProt Q12809); experiment: primary screen, population patch clamp on CHO cells stably expressing hERG
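Note: peak tail current of the secondary pulse compared with the same well before compound.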

Chain of human ether-à-go-go-related gene (hERG) potassium channel (Q12809 whole entry, looked up): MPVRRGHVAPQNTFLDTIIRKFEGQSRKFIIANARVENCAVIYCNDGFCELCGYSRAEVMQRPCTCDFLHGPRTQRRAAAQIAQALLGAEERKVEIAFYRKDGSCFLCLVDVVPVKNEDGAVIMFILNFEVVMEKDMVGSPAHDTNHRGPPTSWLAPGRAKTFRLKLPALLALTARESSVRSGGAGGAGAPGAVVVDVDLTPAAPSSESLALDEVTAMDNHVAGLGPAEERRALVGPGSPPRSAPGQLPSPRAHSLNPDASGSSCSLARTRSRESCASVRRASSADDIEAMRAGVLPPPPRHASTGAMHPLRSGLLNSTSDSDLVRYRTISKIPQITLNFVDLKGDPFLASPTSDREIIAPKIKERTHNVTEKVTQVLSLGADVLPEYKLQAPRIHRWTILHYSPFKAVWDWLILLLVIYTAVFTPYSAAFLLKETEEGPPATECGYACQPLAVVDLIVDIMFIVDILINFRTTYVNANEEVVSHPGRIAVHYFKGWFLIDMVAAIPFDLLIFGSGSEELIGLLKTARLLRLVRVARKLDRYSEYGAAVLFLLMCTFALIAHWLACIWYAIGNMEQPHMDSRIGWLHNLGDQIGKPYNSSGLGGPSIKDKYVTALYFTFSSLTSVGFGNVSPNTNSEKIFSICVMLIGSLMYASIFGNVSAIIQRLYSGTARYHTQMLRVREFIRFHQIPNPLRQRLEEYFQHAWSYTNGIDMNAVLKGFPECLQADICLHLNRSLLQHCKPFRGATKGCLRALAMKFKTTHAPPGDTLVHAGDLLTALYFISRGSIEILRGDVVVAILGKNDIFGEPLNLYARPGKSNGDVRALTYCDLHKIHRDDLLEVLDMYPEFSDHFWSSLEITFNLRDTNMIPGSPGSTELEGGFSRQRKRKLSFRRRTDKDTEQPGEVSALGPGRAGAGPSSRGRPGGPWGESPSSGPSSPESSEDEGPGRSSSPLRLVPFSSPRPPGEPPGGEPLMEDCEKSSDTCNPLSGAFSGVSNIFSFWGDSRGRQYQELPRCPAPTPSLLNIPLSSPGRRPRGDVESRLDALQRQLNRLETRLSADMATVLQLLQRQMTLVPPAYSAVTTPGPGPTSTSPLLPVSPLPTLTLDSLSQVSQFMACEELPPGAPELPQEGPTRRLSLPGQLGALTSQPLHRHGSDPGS

First: CC(C)c1ccc(NC(=O)CCN2C(=O)[C@@H]3Cc4ccccc4CN3C2=O)cc1
Second: CCCN1Cc2cccc(C(=O)NC(CC(=O)OCC)c3ccc(C)cc3)c2C1=O (centres unmarked)
The “hERG current change (%, negative = inhibition) at 10uM” value of the first is higher: 4.7% for the first, -81.7% for the second.

Going from `O=C(NC1CCCCCC1)C1CCN(C(=O)c2cccc(Cl)c2)CC1` to `O=C(NC1CCCCC1)C(c1ccc(Cl)cc1)N(C(=O)c1ccccn1)c1cccnc1` (centres unmarked), the “hERG current change (%, negative = inhibition) at 10uM” value rises from -6.56% to 31%.

Compared with `COCCN(C(=O)CSc1nnc(-c2cccc(F)c2)n1N)c1c(N)n(Cc2ccccc2)c(=O)[nH]c1=O`, `O=C1COc2ccc(C(=O)CSc3nnc(-c4cccs4)n3Cc3ccccc3)cc2N1` is lower in “hERG current change (%, negative = inhibition) at 10uM” value: 0.307% for the first, -27% for the second.

Compared with `C#CCOCCOCCOCCNc1nc(N2CCN(C(=O)C(CCC(=O)O)n3cc(C(N)CC(C)C)nn3)CC2)nc(N2CCN(C(=O)C(Cc3cc4ccccc4[nH]3)n3cc(C(N)Cc4ccc(O)cc4)nn3)CC2)n1.Cl` (centres unmarked), `C#CCOCCOCCOCCNc1nc(N2CCN(C(=O)C(Cc3ccc(O)cc3)n3cc(C(N)C(C)CC)nn3)CC2)nc(N2CCN(C(=O)C(Cc3ccc(O)cc3)n3cc(C(N)C(C)CC)nn3)CC2)n1.Cl` (centres unmarked) is lower in “hERG current change (%, negative = inhibition) at 10uM” value: -2.51% for the first, -13.3% for the second.

First: COc1cccc(OCC(=O)Nc2ccc(OC)c(OC)c2)c1
Second: COc1ccc(N(C(=O)c2cccnc2)S(=O)(=O)c2cc(OC)ccc2OC)cc1
The “hERG current change (%, negative = inhibition) at 10uM” value of the first is higher: 1.76% for the first, -21.8% for the second.

Going from `Cc1ccc(N(C(=O)C2CCCO2)C2C=CS(=O)(=O)C2)cc1Cl` (centres unmarked) to `Cc1nc(-c2ccc(S(=O)(=O)N3CCOCC3)cc2)cs1`, the “hERG current change (%, negative = inhibition) at 10uM” value rises from -4.44% to 12.8%.

Going from `CSC1=NCCN1C(=O)c1ccc(C)cc1` to `O=C(Cc1cccs1)N1CCN=C1SCc1ccccc1Cl`, the “hERG current change (%, negative = inhibition) at 10uM” value falls from 4.27% to 2.57%.

Going from `COc1ccccc1C(=O)N/N=C(\C)CC(=O)Nc1ccc(Cl)cn1` to `CC(=O)c1sc(NC(=O)c2cccc3ccccc23)nc1C`, the “hERG current change (%, negative = inhibition) at 10uM” value rises from -22.2% to 8.53%.

Compared with `CCc1ccc2c(c1)C(c1ccc([N+](=O)[O-])cc1)=NNC(c1ccccc1)=N2`, `COc1ccc(-c2nn3c(-c4ccccc4)nnc3s2)cc1` is higher in “hERG current change (%, negative = inhibition) at 10uM” value: -23.2% for the first, 10.7% for the second.

Compared with `COc1ccc(-c2ccc(CO)o2)cc1N`, `CCN(CC)C(=O)c1cc(-c2ccccc2OC)on1` is lower in “hERG current change (%, negative = inhibition) at 10uM” value: 27.7% for the first, -4.66% for the second.

First: COc1ccccc1OCc1nc(C#N)c(N2CCC(C(N)=O)CC2)o1
Second: CCCN(CC(=O)Nc1ccccc1OC)C(=O)C1CCCC1
The “hERG current change (%, negative = inhibition) at 10uM” value of the first is lower: -26.2% for the first, -4.11% for the second.

Going from `COc1ccc([C@H]2CC(=O)C=C(c3cc(F)ccc3OC)C2)cc1` to `COc1ccc(NC(=O)c2ccc3c(c2)NC(=O)CS3)cc1`, the “hERG current change (%, negative = inhibition) at 10uM” value rises from 2.84% to 17.1%.

Compared with `CCN(CC(=O)Nc1c(F)cccc1F)C(=O)c1ccc(COc2ccccc2)cc1`, `COc1ccccc1S(=O)Cc1ccc(C(=O)NCCc2ccc(Cl)cc2)o1` (centres unmarked) is lower in “hERG current change (%, negative = inhibition) at 10uM” value: -10.9% for the first, -65.4% for the second.

Compared with `CC(NC(=O)c1cc(-c2cccs2)on1)c1ccccc1` (centres unmarked), `Cc1ccccc1S(=O)(=O)Cc1ccc(C(=O)NC(C)c2ccccc2)o1` (centres unmarked) is lower in “hERG current change (%, negative = inhibition) at 10uM” value: 16% for the first, -3.26% for the second.

Going from `CC1(C)CC(=O)C(C=NCC2CCN(C(=S)Nc3cccc(Cl)c3)CC2)=C(O)C1` to `Cc1ccc(NC(=O)Nc2cc(Cl)ccc2C2COC(=O)C2=N)cc1` (centres unmarked), the “hERG current change (%, negative = inhibition) at 10uM” value rises from -62.4% to 27.9%.

Going from `Cn1c(=O)n(C)c2cc(NC(=O)CCc3ccccc3)c(Br)cc21` to `Cc1cc(CNC(=O)CC2C(=O)NCCN2Cc2ccccc2)nn1C` (centres unmarked), the “hERG current change (%, negative = inhibition) at 10uM” value rises from 11.2% to 13.8%.

Compared with `O=C(COC(=O)c1ccc2c(c1)OCO2)NCc1ccc(Cl)cc1`, `Clc1ccc(Cc2nc(-c3ccncc3)no2)cc1` is lower in “hERG current change (%, negative = inhibition) at 10uM” value: 1.69% for the first, -9.82% for the second.

First: CCCCNC(=S)Nc1ccc2[nH]c(=O)[nH]c2c1
Second: CC(=O)Nc1ccc2nc(-c3ccc(Br)o3)[nH]c2c1
The “hERG current change (%, negative = inhibition) at 10uM” value of the first is higher: 16.4% for the first, -14% for the second.

Compared with `Cc1c(C(=O)Nc2ccc(C(=O)Nc3ccccc3)cc2)cccc1[N+](=O)[O-]`, `COc1ccccc1NS(=O)(=O)c1ccc(NC(=O)c2ccncc2)cc1` is lower in “hERG current change (%, negative = inhibition) at 10uM” value: 26.7% for the first, -22.1% for the second.

Compared with `COc1ccc(-n2c(Cc3cccn3C)nnc2SCC(=O)Nc2cc(C)cc(C)c2)cc1`, `CCOC(=O)CSc1nnc(CNc2ccc(Cl)cc2)n1-c1ccccc1` is higher in “hERG current change (%, negative = inhibition) at 10uM” value: -52.4% for the first, 11.2% for the second.

Going from `CN1CCN(Cc2cc(=O)oc3cc4c(cc23)CCC4)CC1` to `COc1ccccc1N1CCN(Cc2cn[nH]c2-c2ccc(F)cc2)CC1`, the “hERG current change (%, negative = inhibition) at 10uM” value falls from -8.2% to -55.3%.

First: CCn1c(SCC(=O)N/N=C/C=C/c2ccccc2[N+](=O)[O-])nnc1-c1ccccc1
Second: COC(=O)c1cccc(NC(=O)CSCc2ccccc2)c1
The “hERG current change (%, negative = inhibition) at 10uM” value of the first is lower: -36.6% for the first, 12.1% for the second.

Going from `CCOC(=O)C(=O)Nc1ccccc1C(N)=O` to `Cc1ccccc1NC(=O)OCCN1CCN(Cc2ccccc2)CCC1=O`, the “hERG current change (%, negative = inhibition) at 10uM” value rises from -16.3% to -5.9%.

Compared with `COc1ccc(CCn2c(O)c(C=Nc3ccc(F)cc3)c(=O)[nH]c2=O)cc1OC`, `COc1cccc(OC)c1C(=O)Nc1nc(-c2ccccc2)cs1` is higher in “hERG current change (%, negative = inhibition) at 10uM” value: 2.45% for the first, 4.14% for the second.

Compared with `CCN1CCN(c2ccc(S(=O)(=O)N3CCCCC3)cc2NC(=O)C(C)Oc2ccc(F)cc2)CC1` (centres unmarked), `CCc1ccc(-c2cc(C)no2)cc1S(=O)(=O)N1CCN(c2ccccc2)CC1` is higher in “hERG current change (%, negative = inhibition) at 10uM” value: -72.7% for the first, 3.41% for the second.

Compared with `OCCC1CN(Cc2nc(-c3ccccc3)cs2)CCN1CCc1ccccc1` (centres unmarked), `CCCC[n+]1ccn(-c2nc3ccccc3nc2[N-]S(=O)(=O)c2ccccc2)c1` is higher in “hERG current change (%, negative = inhibition) at 10uM” value: -77.8% for the first, -5.32% for the second.

Compared with `O=C(CN1CCC(NC(=O)Nc2ccccc2)CC1)Nc1ccccc1F`, `CC(=O)N1CCN(C(=O)C(Cc2c[nH]c3ccccc23)NC(=O)c2ccccc2Cl)CC1` (centres unmarked) is higher in “hERG current change (%, negative = inhibition) at 10uM” value: -18.3% for the first, 19.1% for the second.

Going from `CCS(=O)(=O)C1=NN2C(=N)/C(=C\c3ccc(OC(=O)c4ccco4)c(Br)c3)C(=O)N=C2S1` to `CCCNc1c(NS(=O)(=O)c2cccs2)c(=O)oc2ccccc12`, the “hERG current change (%, negative = inhibition) at 10uM” value falls from 11.7% to -24.6%.

Going from `Cc1cc(C)n2nc(C(=O)OCC(=O)c3ccc(F)cc3)nc2n1` to `O=C(CN1C(=O)c2ccccc2C1=O)Oc1ccc(F)cc1`, the “hERG current change (%, negative = inhibition) at 10uM” value rises from -3.27% to 14.5%.

Going from `O=C(NCc1ccccn1)C1CCN(S(=O)(=O)c2cccs2)CC1` to `CC1c2cc3c(cc2CCN1S(=O)(=O)c1ccccc1)OCCCO3` (centres unmarked), the “hERG current change (%, negative = inhibition) at 10uM” value falls from -15.8% to -20%.

First: CCc1cccc(CC)c1NC(=S)/C(=C(\[O-])c1ccc(Cl)s1)[n+]1ccccc1
Second: Cc1cccc(OCC(=O)NCc2n[nH]c(=O)c3ccccc23)c1
The “hERG current change (%, negative = inhibition) at 10uM” value of the first is higher: -10.1% for the first, -11.7% for the second.

Going from `COc1cc(/C=C(\C#N)C(=O)Nc2ccc(C(=O)O)cc2)ccc1OC(=O)c1cccc(F)c1` to `COC(=O)c1sc(NC(=O)c2c(OC)cccc2OC)c(C#N)c1C`, the “hERG current change (%, negative = inhibition) at 10uM” value rises from 11.1% to 15.1%.

Compared with `COc1ccc(-c2csc3nc(-c4ccccc4F)oc(=O)c23)cc1`, `COc1cccc2cc3c(=O)oc4ccccc4c3nc12` is lower in “hERG current change (%, negative = inhibition) at 10uM” value: 11% for the first, -5.61% for the second.

Going from `CCCCCCn1c(N2CCN(c3ccccc3)CC2)nc2c1c(=O)[nH]c(=O)n2C` to `CCCCCCC(C)n1cc(C(C)=O)c(=O)[nH]c1=O` (centres unmarked), the “hERG current change (%, negative = inhibition) at 10uM” value rises from -32.6% to -2.8%.

Going from `CCc1c(C(=O)Nc2ccc(OC)c(Cl)c2)[nH]c(C)c1C(C)=O` to `CCN1CCC[C@H]1CNC(=O)c1c(OC)ccc(Br)c1OC.Cl`, the “hERG current change (%, negative = inhibition) at 10uM” value falls from -0.65% to -12.2%.

First: Cc1ccc(NS(=O)(=O)c2ccc3c(c2)NC(=O)C(C)C(=O)N3)cc1C (centres unmarked)
Second: COc1ccc(C)cc1S(=O)(=O)n1c([N+](=O)[O-])cnc1C
The “hERG current change (%, negative = inhibition) at 10uM” value of the first is lower: 2.46% for the first, 6.2% for the second.

Going from `Nc1ncnc(Sc2ccccc2)c1[N+](=O)[O-]` to `CCc1nnc(NC(=O)CSc2nnc(Cc3ccccc3)o2)s1`, the “hERG current change (%, negative = inhibition) at 10uM” value rises from 8.7% to 21.3%.

First: Cc1cc(NC(=O)CSc2ccnc(=O)[nH]2)no1
Second: COC(=O)Cc1c(C)c2ccc(OCc3nn[nH]n3)c(C)c2oc1=O
The “hERG current change (%, negative = inhibition) at 10uM” value of the first is lower: -0.802% for the first, 3.5% for the second.

First: CN1C(=O)C(O)(CC(=O)/C=C/c2ccco2)c2cc(Br)ccc21 (centres unmarked)
Second: CCC1(C(=O)c2ccccc2)C2c3cc(Br)ccc3OC(=O)C21C(=O)N1CCOCC1 (centres unmarked)
The “hERG current change (%, negative = inhibition) at 10uM” value of the first is lower: -14.4% for the first, -13% for the second.

First: CCOc1cc(C=O)c(Br)cc1OC1CCCC1
Second: Cc1ccn2c(CN(C)CCn3nc(C)cc3C)c(C(=O)N3CCCCCC3)nc2c1
The “hERG current change (%, negative = inhibition) at 10uM” value of the first is higher: 11.3% for the first, 4.86% for the second.

Going from `Cc1cccc(N2CC(C(=O)OCc3ccc([N+](=O)[O-])cc3)CC2=O)c1` (centres unmarked) to `COc1ccc(N2C(=O)CCC(C(=O)N3CCOCC3)C2c2ccc(F)cc2)cc1` (centres unmarked), the “hERG current change (%, negative = inhibition) at 10uM” value rises from -64% to 0.595%.

First: Nc1ccc(Oc2c(Cl)cccc2Cl)nc1
Second: COc1ccc2sc(NCc3ccccc3)nc2c1
The “hERG current change (%, negative = inhibition) at 10uM” value of the first is lower: -9.23% for the first, 18.6% for the second.

Going from `O=C1NCCCc2nonc21` to `CC1(C)NC(C)(C)c2nonc2/C1=N\O`, the “hERG current change (%, negative = inhibition) at 10uM” value falls from 12.8% to -1.78%.
